# Data reported in PubChem BioAssay (Tox21).
# Values joined by “and” are separate entries in the source; they are usually repeats but may differ in a detail not shown here. Equal entries are not always repeated. The inconclusive results got no clear call from the source; some entries with a clear call stand among them for comparison. For some assays here: Potencies of inconclusive entries are doubtful fits and often do not repeat. Active and inactive are the calls of the source. Unless noted, the call rests on the fitted dose curve; in most records, active means well fitted curve in the direction sought with a large enough effect in the repeat runs; inconclusive means weak or mixed curves; inactive means no such curve, though single readings can be large; an effect the other way counts as inactive or inconclusive.
# Assays:
# [1] = qHTS assay to identify small molecule antagonists of the TGF-beta/Smad signaling pathway (AID 1346924; active means well fitted inhibition curve with a large enough effect in the signal ratio in the repeat runs, not every such curve was filed as active; inconclusive means weak or mixed curves; the % refers to the signal ratio); conditions: SBE-bla HEK293T, TGF-beta/Smad reporter, beta-lactamase ratio; activity, negative = inhibition: at 76.8 µM (top of the series) unless noted
# How it was run: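 Read-out was FRET-substrate fluorescence (405 nm excitation; 460 and 530 nm emission) after 2 h at room temperature. Before that, cells carrying a Smad-binding-element beta-lactamase reporter in HEK 293T had been stimulated 5 h at 37 C with TGF-beta1 (0.25 ng/mL addition solution) in the presence of test compound.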
# [2] = Caspase-3/7 induction in HepG2 cells by small molecules, qHTS cell viability counter screen (AID 1346981); further: nearly all actives have a fitted effect of over 30% in size
# How it was run: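 In this quantitative HTS counter screen, compounds delivered in DMSO were left on unmodified HepG2 cells for 16 hr at 37 C. Viability was then determined fluorometrically with CellTiter-Fluor, in parallel with caspase-3/7 induction in the same wells.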
# [3] = target: Cytochrome P450 3A4 (Homo sapiens) (UniProt P08684); assay: Cytochrome P450 Family 3 Subfamily A Member 4 (CYP3A4) small molecule antagonists: luciferase reporter qHTS assay (AID 1671201); further: nearly all actives have a fitted effect of over 50% in size
# How it was run: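 Compounds in DMSO were pin-transferred onto CYP3A4 enzyme-substrate mix and held 10 min at room temperature. NADPH regenerating solution started the reaction for 1 h; luciferin detection reagent stopped it, and luminescence was read after 20 min.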
# [4] = Caspase-3/7 induction in CHO-K1 cells by small molecules, qHTS cell viability counter screen (AID 1346979); further: nearly all actives have a fitted effect of over 35% in size
# How it was run: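 Cells (CHO-K1, wild type) are plated at 1,500 per well and incubated 5hr. Test compounds in DMSO are then pinned in, followed by 16hr at 37C and 5% CO2. Viability is read by CellTiter-Fluor fluorescence after 1hr.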
# [5] = target: Nuclear receptor subfamily 1 group I member 2 (Homo sapiens) (UniProt O75469); assay: CYP3A4 induction through human pregnane X receptor (PXR) by small molecules, qHTS assay (AID 1346984); further: nearly all actives have a fitted effect of over 40% in size
# How it was run: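 Induction measured in HepG2-based DPX-2 cells co-expressing human PXR and a CYP3A4 promoter-driven luciferase. After a 24-hour compound exposure, cells received CYP3A4 luciferin substrate at 3uM final for 3 hours, and light output was then recorded.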
# [6] = target: Nuclear receptor subfamily 1 group I member 2 (Homo sapiens) (UniProt O75469); assay: Human pregnane X receptor (PXR) activation by small molecules, qHTS assay (AID 1346985); further: nearly all actives have a fitted effect of over 40% in size
# How it was run: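 DPX-2 cells (HepG2 co-transfected with a PXR response element and a CYP3A4-promoter luciferase construct) were seeded at 2,000 per well, rested 5 hr at 37C, then exposed to DMSO-dissolved compounds for 24 hr. Activation was read as luciferase luminescence.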
# [7] = target: Cytochrome P450 2C19 (Homo sapiens) (UniProt P33261); assay: Cytochrome P450 Family 2 Subfamily C Member 19 (CYP2C19) small molecule antagonists: luciferase reporter qHTS assay (AID 1671197); further: nearly all actives have a fitted effect of over 65% in size
# How it was run: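 Enzyme-substrate mix with proluciferin substrate (P450-Glo CYP2C19 system) preincubated with compounds 10 min at room temperature; NADPH regeneration solution added, 37C for 1 h; detection reagent stops reaction, luminescence read after 20 min. Ketoconazole positive control.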
# [8] = target: Cytochrome P450 2C9 (Homo sapiens) (UniProt P11712); assay: Cytochrome P450 Family 2 Subfamily C Member 9 (CYP2C9) small molecule antagonists: luciferase reporter qHTS assay (AID 1671198); further: nearly all actives have a fitted effect of over 50% in size
# How it was run: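 P450-Glo proluciferin substrate with CYP2C9 enzyme; 10 min RT preincubation, then NADPH regeneration 1 h at 37C; luciferin detection reagent 20 min RT, luminescence in relative luminescence units.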
# [9] = target: Cytochrome P450 1A2 (Homo sapiens) (UniProt P05177); assay: Cytochrome P450 Family 1 Subfamily A Member 2 (CYP1A2) small molecule antagonists: luciferase reporter qHTS assay (AID 1671199); further: nearly all actives have a fitted effect of over 50% in size
# How it was run: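 Steps: enzyme-substrate mix dispensed; test compounds and furafylline control pinned in; 10 min room temperature; NADPH regeneration solution added, 1 h; reaction stopped with luciferin detection reagent; luminescence read after 20 min.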
# [10] = target: Nuclear receptor subfamily 1 group I member 2 (Rattus norvegicus) (UniProt Q9R1A7); assay: Rat pregnane X receptor (rPXR) activation by small molecules, qHTS assay (AID 1346983); conditions: rPXR luciferase reporter cells, One-Glo luminescence, 24 h; max activation: hits give high values; further: nearly all actives have a fitted effect of over 20% in size
# How it was run: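 Cell-based rPXR activation assay: rPXR cells, 2,000 per well, rested 5hr at 37 C, then exposed to compounds in DMSO for 24 hr at 37 C. Luciferase activity read by One-Glo luminescence after 30 min at room temperature.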
# [11] = target: Cytochrome P450 2D6 (Homo sapiens) (UniProt P10635); assay: Cytochrome P450 Family 2 Subfamily D Member 6 (CYP2D6) small molecule antagonists: luciferase reporter qHTS assay (AID 1671196); further: nearly all actives have a fitted effect of over 50% in size
# How it was run: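 Test chemicals meet CYP2D6 plus proluciferin substrate (10 min, RT); NADPH regenerating solution then drives turnover for 1 h. Detection reagent halts the reaction; luminescence measured after 20 min.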
# Potency means the concentration at half of the fitted maximal effect; tags describe the fitted curve by direction and shape or compound fluorescence and quenching.
# UniProt P05177, sequence (P05177 whole entry, looked up): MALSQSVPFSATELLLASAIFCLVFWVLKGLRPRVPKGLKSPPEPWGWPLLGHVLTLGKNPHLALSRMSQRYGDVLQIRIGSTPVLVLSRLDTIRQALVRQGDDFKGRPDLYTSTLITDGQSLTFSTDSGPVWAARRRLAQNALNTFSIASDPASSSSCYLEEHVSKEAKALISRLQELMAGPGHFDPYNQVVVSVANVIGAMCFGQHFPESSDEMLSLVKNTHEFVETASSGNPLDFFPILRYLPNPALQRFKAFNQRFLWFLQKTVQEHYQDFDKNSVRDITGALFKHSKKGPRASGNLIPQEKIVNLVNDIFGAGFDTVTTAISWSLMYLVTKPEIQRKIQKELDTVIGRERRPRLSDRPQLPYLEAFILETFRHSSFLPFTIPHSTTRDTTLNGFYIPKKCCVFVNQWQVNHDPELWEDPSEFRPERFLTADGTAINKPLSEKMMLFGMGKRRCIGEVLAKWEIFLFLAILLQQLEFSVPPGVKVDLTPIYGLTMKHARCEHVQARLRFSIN
# UniProt P10635, sequence (P10635 whole entry, looked up): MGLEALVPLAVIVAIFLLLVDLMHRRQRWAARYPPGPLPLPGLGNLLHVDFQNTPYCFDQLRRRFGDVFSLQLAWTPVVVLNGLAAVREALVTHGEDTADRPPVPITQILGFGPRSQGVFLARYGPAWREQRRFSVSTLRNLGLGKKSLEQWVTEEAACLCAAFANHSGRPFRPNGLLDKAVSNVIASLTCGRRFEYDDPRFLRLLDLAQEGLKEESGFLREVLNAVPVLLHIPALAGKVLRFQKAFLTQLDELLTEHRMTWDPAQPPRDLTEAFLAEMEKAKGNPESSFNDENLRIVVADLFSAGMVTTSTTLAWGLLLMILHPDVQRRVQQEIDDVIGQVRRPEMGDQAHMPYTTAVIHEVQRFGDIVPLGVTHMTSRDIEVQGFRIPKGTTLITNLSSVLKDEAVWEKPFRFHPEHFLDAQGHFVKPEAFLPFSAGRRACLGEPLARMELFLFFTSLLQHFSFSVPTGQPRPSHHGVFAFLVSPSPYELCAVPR
# UniProt P08684, sequence (P08684 whole entry, looked up): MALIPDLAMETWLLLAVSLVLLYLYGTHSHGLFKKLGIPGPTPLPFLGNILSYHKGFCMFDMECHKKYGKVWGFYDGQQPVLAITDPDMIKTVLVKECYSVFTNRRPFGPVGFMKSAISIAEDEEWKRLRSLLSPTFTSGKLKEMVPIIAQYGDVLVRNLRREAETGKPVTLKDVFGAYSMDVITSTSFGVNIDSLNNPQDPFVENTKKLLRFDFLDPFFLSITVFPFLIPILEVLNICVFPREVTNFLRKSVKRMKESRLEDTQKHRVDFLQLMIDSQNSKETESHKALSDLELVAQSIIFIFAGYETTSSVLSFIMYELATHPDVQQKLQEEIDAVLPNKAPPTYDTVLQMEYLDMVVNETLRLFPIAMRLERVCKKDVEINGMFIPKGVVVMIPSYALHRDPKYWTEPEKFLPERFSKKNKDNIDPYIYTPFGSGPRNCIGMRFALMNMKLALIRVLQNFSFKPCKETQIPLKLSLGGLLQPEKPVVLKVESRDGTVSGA
# UniProt Q9R1A7, sequence (Q9R1A7 whole entry, looked up): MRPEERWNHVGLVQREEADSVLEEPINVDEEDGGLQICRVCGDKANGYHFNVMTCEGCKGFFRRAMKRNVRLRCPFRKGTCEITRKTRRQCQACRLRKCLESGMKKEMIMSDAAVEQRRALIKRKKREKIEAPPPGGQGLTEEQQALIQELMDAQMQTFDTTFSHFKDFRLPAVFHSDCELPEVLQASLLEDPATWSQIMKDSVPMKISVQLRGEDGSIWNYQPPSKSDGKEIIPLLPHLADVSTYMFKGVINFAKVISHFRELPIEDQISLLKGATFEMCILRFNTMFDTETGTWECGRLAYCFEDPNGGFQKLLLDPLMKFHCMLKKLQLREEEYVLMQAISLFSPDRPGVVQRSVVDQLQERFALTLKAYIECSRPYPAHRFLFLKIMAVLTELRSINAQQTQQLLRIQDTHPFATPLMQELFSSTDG
# UniProt P33261, sequence (P33261 whole entry, looked up): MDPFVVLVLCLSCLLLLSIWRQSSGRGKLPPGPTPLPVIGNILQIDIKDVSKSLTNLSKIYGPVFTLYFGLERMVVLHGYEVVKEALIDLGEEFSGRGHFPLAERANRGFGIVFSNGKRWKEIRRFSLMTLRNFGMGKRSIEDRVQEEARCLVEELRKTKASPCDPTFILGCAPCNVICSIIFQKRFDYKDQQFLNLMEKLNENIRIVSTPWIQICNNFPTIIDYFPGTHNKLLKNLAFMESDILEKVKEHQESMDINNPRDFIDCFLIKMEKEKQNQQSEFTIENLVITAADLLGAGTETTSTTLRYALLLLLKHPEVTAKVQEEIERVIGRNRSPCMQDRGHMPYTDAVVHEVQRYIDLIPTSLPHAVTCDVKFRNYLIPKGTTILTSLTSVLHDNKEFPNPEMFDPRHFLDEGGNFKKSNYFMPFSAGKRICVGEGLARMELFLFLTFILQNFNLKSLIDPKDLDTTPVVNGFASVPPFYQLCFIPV
# UniProt P11712, sequence (P11712 whole entry, looked up): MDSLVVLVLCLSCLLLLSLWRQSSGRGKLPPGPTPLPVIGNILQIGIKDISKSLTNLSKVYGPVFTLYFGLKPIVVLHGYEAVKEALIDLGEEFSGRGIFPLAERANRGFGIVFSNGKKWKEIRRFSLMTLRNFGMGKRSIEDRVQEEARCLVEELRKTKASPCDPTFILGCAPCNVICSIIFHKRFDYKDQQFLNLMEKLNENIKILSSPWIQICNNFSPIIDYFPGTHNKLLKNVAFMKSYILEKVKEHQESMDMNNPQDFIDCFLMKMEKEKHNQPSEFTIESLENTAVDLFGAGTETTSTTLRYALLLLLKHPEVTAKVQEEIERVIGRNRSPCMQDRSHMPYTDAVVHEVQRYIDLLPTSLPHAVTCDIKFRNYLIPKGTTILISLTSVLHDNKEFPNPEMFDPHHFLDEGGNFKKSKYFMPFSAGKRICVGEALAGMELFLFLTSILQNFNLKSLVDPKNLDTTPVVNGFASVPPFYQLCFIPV
smiles,measurement,setting,value
Nc1ccccc1Nc1ccccc1,"activity, negative = inhibition",[1],inconclusive: 4.44%
same,Potency,[2],"inconclusive: 34.5 µM [cytotoxic, partial curve]"
same,Potency,[3],active: 31.8 µM
O=C(c1ccc(F)cc1)C1CCN(CCn2c(=S)[nH]c3ccccc3c2=O)CC1,Potency,[1],inconclusive: 12 µM [fluorescent]
same,Potency,[4],"inconclusive: 33.5 µM [cytotoxic, single point]"
same,Potency,[5],"inconclusive: 28.2 µM [activator, partial curve, poor fit]"
same,Potency,[6],"inconclusive: 14.1 µM [activator, partial curve]"
same,Potency,[7],"inconclusive: 38.9 µM [inhibitor, single point]"
same,Potency,[8],"inconclusive: 30.9 µM [inhibitor, partial curve]"
same,Potency,[9],"inconclusive: 27.5 µM [inhibitor, partial curve]"
C[C@]12CC[C@H]3[C@@H](CCC4=CC(=O)CC[C@@]43C)[C@@H]1CC[C@@H]2C(=O)CO,Potency,[1],"inconclusive: 21.9 µM [fluorescent, partial curve, poor fit]"
same,Potency,[10],"inconclusive: 1.12 µM [activator, full curve, poor fit]"
same,Potency,[11],"inconclusive: 38.9 µM [inhibitor, single point]"
same,Potency,[9],"inconclusive: 63.3 µM [inhibitor, partial curve] and inconclusive: 28.8 µM [inhibitor, partial curve]"
